Screen size: about 280,000 compounds; about 540 (0.19%) were called active. Inconclusive results, whose numbers are uncertain, are shown with a selection of clear calls. The call rests on the fitted dose curve; in most records, active means well fitted activation curve with a large enough effect; inconclusive means small, poorly fitted or top-dose-only effect; inactive means flat fitted curve, though single readings scatter. A potency beside an inconclusive call is a rough fit, not a confirmed value.
Assay: Quantitative High-Throughput Screen for Regulators of Epigenetic Control; further: nearly all actives have a fitted effect of over 60% in size; on GFP activation: % of control where 0% means no effect
Conditions: murine LDR cells, GFP reporter derepression, 30 h; GFP activation: at 53.9 µM (top of the series)
Procedure, shortened: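 Reporter derepression read as number of fluorescent GFP-positive objects, 20-120 um in size, counted by laser-scanning cytometer. Mouse LDR line with an epigenetically silenced CMV-GFP locus; compound incubation 30 h, 37 C.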
Potency means the concentration at half of the fitted maximal effect; tags describe the fitted curve by direction and shape.

| Compound | Potency | GFP activation |
| --- | --- | --- |
| Oc1ccc(NC(=S)N=Nc2c(O)[nH]c3ccc(Br)cc23)cc1 | inconclusive: 35.5 µM [activator, single point] | – |
| CCCCC[C@H](O)C/C=C1/C(=O)C=C[C@@H]1C/C=C\CCCC(=O)O | inactive | – |
| CCN(CC)c1nc2ccccc2nc1C(C#N)C(=O)NCCc1ccccc1 (centres undefined) | inconclusive: 14.1 µM [activator, single point] | – |
| C=CCSc1nnc(C)c(/C=C/Nc2ccc(Cl)cc2)n1 | inconclusive: 31.6 µM [activator, single point] | – |
| COc1ccc(-c2nc3cc(C)ccn3c2NC(=O)c2cccc(F)c2)cc1 | – | inactive: 4.49% |
| CCOc1cc(C2c3c(oc4ccccc4c3=O)C(=O)N2Cc2ccc(OC)cc2)ccc1O (centres undefined) | inconclusive: 10 µM [activator, partial curve] | – |
| Cc1cccc(C2=N[C@@H](CC(C)C)CO2)c1 | – | inactive: -0.957% [at 96.6 µM] |
| O=C(CCCCn1c(=O)c2ccccc2n(Cc2cccc(F)c2)c1=O)NCc1ccc2c(c1)OCO2 | inconclusive: 12.6 µM [activator, single point] | – |
| CCOc1ccc(N=C2NC(=O)S/C2=C\c2ccc(N(C)C)cc2)cc1 | active: 7.94 µM | – |
| Cc1cccc(NC(=O)COc2ccc(/C=N\n3cnnc3)cc2)c1 | inconclusive: 35.5 µM [activator, single point] | – |
| COC(=O)c1nn2c(C(F)(F)F)cc(-c3ccc(Br)o3)nc2c1Br | inconclusive: 22.4 µM [activator, single point] | – |
| O=S(=O)(NCC(Nc1ccccc1)c1ccccc1)c1ccc(Cl)cc1 (centres undefined) | inconclusive: 35.5 µM [activator, single point] | – |
| COc1ccc(C(=O)c2c[nH]c(C(=O)N=CN(C)C)c2)cc1 | inconclusive: 7.08 µM [activator, single point] | – |
| O=C(NN=C1CCCC1)c1[nH]c2ccc(Br)cc2c1-c1ccccc1 | inconclusive: 15.8 µM [activator, single point] | – |
| C/C(=N\Nc1nc2c(s1)CCCC2)c1ccccc1 | inconclusive: 35.5 µM [activator, single point] | – |
| COc1ccc(C2=NN(C(C)=O)C(c3cn(-c4ccccc4)nc3-c3cccs3)C2)cc1 (centres undefined) | inconclusive: 28.2 µM [activator, single point] | – |
| CCN(CC)S(=O)(=O)c1ccc(O)c(NC(=O)CN2CCc3ccccc3C2)c1 | – | inactive: -2.56% |
| Cn1c(-c2ccc(N)cc2)nc2ccccc21 | – | inactive: -1.89% |
| COc1ccc(NC(=O)C2CCN(S(=O)(=O)c3c(C)noc3/C=C/c3ccco3)CC2)cc1 | inconclusive: 35.5 µM [activator, single point] | – |

Reference: PubChem BioAssay AID1865 (National Center for Advancing Translational Sciences (NCATS), 2009)
